Test results: patent US20190183976A1 (GPCR THERAPEUTICS, published 2019)
Read-outs that look alike come from different tables or passages of the source.

Experiments:
CXCR4-VN [1] = biological target: T1, CXCR4-VN (human, UniProt P61073 1-352); experiment: BiFC, U-2 OS cells, CXCR4-VN & GPCRx-VC; score=(positive cells/total cells)x100
T1 construct: whole, on cells; Adenovirus-expressed in U-2 OS cells; also called CXCR4 fused with N-terminal fragment of Venus; not shown: VNm10, N-terminal fragment of Venus (VN154 variant with L46F and L64F)

CXCR4-VN [2] = biological target: T1, CXCR4-VN; experiment: as above; remark: listed apart in the source

B1: HRH1-VC (receptor, human, UniProt P35367 1-487, looked up)
chain: MSLPNSSCLLEDKMCEGNKTTMASPQLMPLVVVLSTICLVTVGLNLLVLYAVRSERKLHTVGNLYIVSLSVADLIVGAVVMPMNILYLLMSKWSLGRPLCLFWLSMDYVASTASIFSVFILCIDRYRSVQQPLRYLKYRTKTRASATILGAWFLSFLWVIPILGWNHFMQQTSVRREDKCETDFYDVTWFKVMTAIINFYLPTLLMLWFYAKIYKAVRQHCQHRELINRSLPSFSEIKLRPENPKGDAKKPGKESPWEVLKRKPKDAGGGSVLKSPSQTPKEMKSPVVFSQEDDREVDKLYCFPLDIVHMQAAAEGSSRDYVAVNRSHGQLKTDEQGLNTHGASEISEDQMLGDSQSFSRTDSDTTTETAPGKGKLRSGSNTGLDYIKFTWKRLRSHSRQYVSGLHMNRERKAAKQLGFIMAAFILCWIPYFIFFMVIAFCKNCCNEHLHMFTIWLGYINSTLNPLIYPLCNENFKKTFKRILHIRS
notes: whole, on cells; Adenovirus-expressed in U-2 OS cells; not shown: VC155, C-terminal fragment of Venus
B1 was tested, and the BiFC score (CXCR4-VN [1]) was 45.

B2: MLNR-VC (receptor, human, UniProt O43193 1-412, looked up)
chain: MGSPWNGSDGPEGAREPPWPALPPCDERRCSPFPLGALVPVTAVCLCLFVVGVSGNVVTVMLIGRYRDMRTTTNLYLGSMAVSDLLILLGLPFDLYRLWRSRPWVFGPLLCRLSLYVGEGCTYATLLHMTALSVERYLAICRPLRARVLVTRRRVRALIAVLWAVALLSAGPFLFLVGVEQDPGISVVPGLNGTARIASSPLASSPPLWLSRAPPPSPPSGPETAEAAALFSRECRPSPAQLGALRVMLWVTTAYFFLPFLCLSILYGLIGRELWSSRRPLRGPAASGRERGHRQTVRVLLVVVLAFIICWLPFHVGRIIYINTEDSRMMYFSQYFNIVALQLFYLSASINPILYNLISKKYRAAAFKLLLARKSRPRGFHRSRDTAGEVAGDTGGDTVGYTETSANVKTMG
notes: as for B1
B2 gave a BiFC score (CXCR4-VN [1]) of 10.

B3: PTGER2-VC (receptor, human, UniProt P43116 1-358, looked up)
chain: MGNASNDSQSEDCETRQWLPPGESPAISSVMFSAGVLGNLIALALLARRWRGDVGCSAGRRSSLSLFHVLVTELVFTDLLGTCLISPVVLASYARNQTLVALAPESRACTYFAFAMTFFSLATMLMLFAMALERYLSIGHPYFYQRRVSRSGGLAVLPVIYAVSLLFCSLPLLDYGQYVQYCPGTWCFIRHGRTAYLQLYATLLLLLIVSVLACNFSVILNLIRMHRRSRRSRCGPSLGSGRGGPGARRRGERVSMAEETDHLILLAIMTITFAVCSLPFTIFAYMNETSSRKEKWDLQALRFLSINSIIDPWVFAILRPPVLRLMRSVLCCRISLRTQDATQTSCSTQSDASKQADL
notes: as for B1
In the case of B3, the BiFC score (CXCR4-VN [1]) is reported as 58.

B4: SSTR2-VC (receptor, human, UniProt P30874 1-369, looked up)
chain: MDMADEPLNGSHTWLSIPFDLNGSVVSTNTSNQTEPYYDLTSNAVLTFIYFVVCIIGLCGNTLVIYVILRYAKMKTITNIYILNLAIADELFMLGLPFLAMQVALVHWPFGKAICRVVMTVDGINQFTSIFCLTVMSIDRYLAVVHPIKSAKWRRPRTAKMITMAVWGVSLLVILPIMIYAGLRSNQWGRSSCTINWPGESGAWYTGFIIYTFILGFLVPLTIICLCYLFIIIKVKSSGIRVGSSKRKKSEKKVTRMVSIVVAVFIFCWLPFYIFNVSSVSMAISPTPALKGMFDFVVVLTYANSCANPILYAFLSDNFKKSFQNVLCLVKVSGTDDGERSDSKQDKSRLNETTETQRTLLNGDLQTSI
notes: as for B1
Work on B4 yielded a BiFC score (CXCR4-VN [1]) of 30 and a BiFC score (CXCR4-VN [2]) of 30.
